{"source": "paper PMC9911399", "about": "“Two distinct binding modes provide the RNA-binding protein RbFox with extraordinary sequence specificity”", "binders": {"B1": {"name": "CCGCGCC (DNA:RNA)", "RNA": "GGGAGACCGGAAUUCAGAUUGUCCCCGCGCCUUAAAUCCCGUCGUAGCCACCA", "DNA 1": "CAATCTGAATTCCGGTCTCCC", "DNA 2": "TGGTGGCTACGACGGGATT"}, "B2": {"name": "CCAAACG (DNA:RNA)", "RNA": "B1 RNA with G27A, C28A, G29A, C31G", "DNA 1": "CAATCTGAATTCCGGTCTCCC", "DNA 2": "TGGTGGCTACGACGGGATT"}, "B3": {"name": "AAAUGUC (DNA:RNA)", "RNA": "B1 RNA with C25A, C26A, G27A, C28U, C30U", "DNA 1": "CAATCTGAATTCCGGTCTCCC", "DNA 2": "TGGTGGCTACGACGGGATT"}, "B4": {"name": "GUUUGCC (DNA:RNA)", "RNA": "B1 RNA with C25G, C26U, G27U, C28U", "DNA 1": "CAATCTGAATTCCGGTCTCCC", "DNA 2": "TGGTGGCTACGACGGGATT"}, "B5": {"name": "GUCGCCC (DNA:RNA)", "RNA": "B1 RNA with C25G, C26U, G27C, C28G, G29C", "DNA 1": "CAATCTGAATTCCGGTCTCCC", "DNA 2": "TGGTGGCTACGACGGGATT"}, "B6": {"name": "AGUGAAU (DNA:RNA)", "RNA": "GGGAGACCGGAAUUCAGAUUGUCCAGUGAAUUUAAAUCCCGUCGUAGCCACCA", "DNA 1": "CAATCTGAATTCCGGTCTCCC", "DNA 2": "TGGTGGCTACGACGGGATT"}, "B7": {"name": "CGGUAGU (DNA:RNA)", "RNA": "B6 RNA with A25C, U27G, G28U, A30G", "DNA 1": "CAATCTGAATTCCGGTCTCCC", "DNA 2": "TGGTGGCTACGACGGGATT"}, "B8": {"name": "GAUAACC (DNA:RNA)", "RNA": "B6 RNA with A25G, G26A, G28A, A30C, U31C", "DNA 1": "CAATCTGAATTCCGGTCTCCC", "DNA 2": "TGGTGGCTACGACGGGATT"}, "B9": {"name": "UGUCCAU (DNA:RNA)", "RNA": "B6 RNA with A25U, G28C, A29C", "DNA 1": "CAATCTGAATTCCGGTCTCCC", "DNA 2": "TGGTGGCTACGACGGGATT"}, "B10": {"name": "GUGAACC (DNA:RNA)", "RNA": "B1 RNA with C25G, C26U, C28A, G29A", "DNA 1": "CAATCTGAATTCCGGTCTCCC", "DNA 2": "TGGTGGCTACGACGGGATT"}, "B11": {"name": "UGAAAAU (DNA:RNA)", "RNA": "B6 RNA with A25U, U27A, G28A", "DNA 1": "CAATCTGAATTCCGGTCTCCC", "DNA 2": "TGGTGGCTACGACGGGATT"}, "B12": {"name": "GAUUUUC (DNA:RNA)", "RNA": "B6 RNA with A25G, G26A, G28U, A29U, A30U, U31C", "DNA 1": "CAATCTGAATTCCGGTCTCCC", "DNA 2": "TGGTGGCTACGACGGGATT"}, "B13": {"name": "CUGGGUU (DNA:RNA)", "RNA": "B1 RNA with C26U, C28G, C30U, C31U", "DNA 1": "CAATCTGAATTCCGGTCTCCC", "DNA 2": "TGGTGGCTACGACGGGATT"}, "B14": {"name": "AGGAAUC (DNA:RNA)", "RNA": "B6 RNA with U27G, G28A, A30U, U31C", "DNA 1": "CAATCTGAATTCCGGTCTCCC", "DNA 2": "TGGTGGCTACGACGGGATT"}, "B15": {"name": "CAACUUA (DNA:RNA)", "RNA": "B1 RNA with C26A, G27A, G29U, C30U, C31A", "DNA 1": "CAATCTGAATTCCGGTCTCCC", "DNA 2": "TGGTGGCTACGACGGGATT"}, "B16": {"name": "AUGGGUU (DNA:RNA)", "RNA": "B6 RNA with G26U, U27G, A29G, A30U", "DNA 1": "CAATCTGAATTCCGGTCTCCC", "DNA 2": "TGGTGGCTACGACGGGATT"}, "B17": {"name": "GAGGUAU (DNA:RNA)", "RNA": "B6 RNA with A25G, G26A, U27G, A29U", "DNA 1": "CAATCTGAATTCCGGTCTCCC", "DNA 2": "TGGTGGCTACGACGGGATT"}, "B18": {"name": "UGGCCUG (DNA:RNA)", "RNA": "B1 RNA with C25U, C26G, G29C, C30U, C31G", "DNA 1": "CAATCTGAATTCCGGTCTCCC", "DNA 2": "TGGTGGCTACGACGGGATT"}, "B19": {"name": "AGGGAUC (DNA:RNA)", "RNA": "B6 RNA with U27G, A30U, U31C", "DNA 1": "CAATCTGAATTCCGGTCTCCC", "DNA 2": "TGGTGGCTACGACGGGATT"}, "B20": {"name": "UAGCGCG (DNA:RNA)", "RNA": "B1 RNA with C25U, C26A, C31G", "DNA 1": "CAATCTGAATTCCGGTCTCCC", "DNA 2": "TGGTGGCTACGACGGGATT"}, "B21": {"name": "CAUCAAC (DNA:RNA)", "RNA": "B6 RNA with A25C, G26A, G28C, U31C", "DNA 1": "CAATCTGAATTCCGGTCTCCC", "DNA 2": "TGGTGGCTACGACGGGATT"}, "B22": {"name": "AUCUUGU (DNA:RNA)", "RNA": "B6 RNA with G26U, U27C, G28U, A29U, A30G", "DNA 1": "CAATCTGAATTCCGGTCTCCC", "DNA 2": "TGGTGGCTACGACGGGATT"}, "B23": {"name": "CGCUGCG (DNA:RNA)", "RNA": "B1 RNA with C26G, G27C, C28U, C31G", "DNA 1": "CAATCTGAATTCCGGTCTCCC", "DNA 2": "TGGTGGCTACGACGGGATT"}, "B24": {"name": "ACCCAAC (DNA:RNA)", "RNA": "B6 RNA with G26C, U27C, G28C, U31C", "DNA 1": "CAATCTGAATTCCGGTCTCCC", "DNA 2": "TGGTGGCTACGACGGGATT"}, "B25": {"name": "ACGACCC (DNA:RNA)", "RNA": "B1 RNA with C25A, C28A, G29C", "DNA 1": "CAATCTGAATTCCGGTCTCCC", "DNA 2": "TGGTGGCTACGACGGGATT"}, "B26": {"name": "CCUUGCC (DNA:RNA)", "RNA": "B1 RNA with G27U, C28U", "DNA 1": "CAATCTGAATTCCGGTCTCCC", "DNA 2": "TGGTGGCTACGACGGGATT"}, "B27": {"name": "AUAGUUG (DNA:RNA)", "RNA": "B6 RNA with G26U, U27A, A29U, A30U, U31G", "DNA 1": "CAATCTGAATTCCGGTCTCCC", "DNA 2": "TGGTGGCTACGACGGGATT"}, "B28": {"name": "GAGUAUU (DNA:RNA)", "RNA": "B6 RNA with A25G, G26A, U27G, G28U, A30U", "DNA 1": "CAATCTGAATTCCGGTCTCCC", "DNA 2": "TGGTGGCTACGACGGGATT"}, "B29": {"name": "CUGUAUC (DNA:RNA)", "RNA": "B1 RNA with C26U, C28U, G29A, C30U", "DNA 1": "CAATCTGAATTCCGGTCTCCC", "DNA 2": "TGGTGGCTACGACGGGATT"}, "B30": {"name": "UUAGUAA (DNA:RNA)", "RNA": "B6 RNA with A25U, G26U, U27A, A29U, U31A", "DNA 1": "CAATCTGAATTCCGGTCTCCC", "DNA 2": "TGGTGGCTACGACGGGATT"}, "B31": {"name": "CACCACA (DNA:RNA)", "RNA": "B1 RNA with C26A, G27C, G29A, C31A", "DNA 1": "CAATCTGAATTCCGGTCTCCC", "DNA 2": "TGGTGGCTACGACGGGATT"}}, "note": "Positions count from the first letter of the chain named. The list shows a part of the results."}
{"target": "T1, RBFOX1 RRM (Homo sapiens, UniProt Q9NWB1 109-208)", "T1 sequence": "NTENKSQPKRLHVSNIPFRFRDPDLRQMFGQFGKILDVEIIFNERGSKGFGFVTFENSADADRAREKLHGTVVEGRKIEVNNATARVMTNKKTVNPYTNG", "experiment": "EMSA; HiTS-Eq, 1 nM pool, 10 min; buffer printed only for the single-RNA assays: 10 mM Tris pH 7.5, 150 mM NaCl, 3.4 mM EDTA, 0.001% NP-40, 30 C", "settings": "tags: His6 N-terminal (pET28a); label: 5' 32P", "summary_of_the_method": "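A pool of RNA with 7 randomized nucleotides, 5′-radiolabelled and with DNA-annealed flanks, was equilibrated at 1 nM for 10 min in 50 µL with purified RbFox RRM, wild type or mutant, across increasing protein concentrations. Free RNA was separated by 8% native PAGE, excised, reverse-transcribed, barcoded by PCR and sequenced. Relative association constants were obtained from read-count changes of each RNA species versus the control reaction and normalised to the cognate motif.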"}
{"binder": "B1", "binding signal": "0.00748 KA relative to UGCAUGU"}
{"binder": "B2", "binding signal": "0.00359 KA relative to UGCAUGU"}
{"binder": "B3", "binding signal": "0.00407 KA relative to UGCAUGU"}
{"binder": "B4", "binding signal": "0.0224 KA relative to UGCAUGU"}
{"binder": "B5", "binding signal": "0.00441 KA relative to UGCAUGU"}
{"binder": "B6", "binding signal": "0.0106 KA relative to UGCAUGU"}
{"binder": "B7", "binding signal": "0.00977 KA relative to UGCAUGU"}
{"binder": "B8", "binding signal": "0.00487 KA relative to UGCAUGU"}
{"binder": "B9", "binding signal": "0.0104 KA relative to UGCAUGU"}
{"binder": "B10", "binding signal": "0.00945 KA relative to UGCAUGU"}
{"binder": "B11", "binding signal": "0.00884 KA relative to UGCAUGU"}
{"binder": "B12", "binding signal": "0.0122 KA relative to UGCAUGU"}
{"binder": "B13", "binding signal": "0.0262 KA relative to UGCAUGU"}
{"binder": "B14", "binding signal": "0.0141 KA relative to UGCAUGU"}
{"binder": "B15", "binding signal": "0.000392 KA relative to UGCAUGU"}
{"binder": "B16", "binding signal": "0.021 KA relative to UGCAUGU"}
{"binder": "B17", "binding signal": "0.0145 KA relative to UGCAUGU"}
{"binder": "B18", "binding signal": "0.0426 KA relative to UGCAUGU"}
{"binder": "B19", "binding signal": "0.0234 KA relative to UGCAUGU"}
{"binder": "B20", "binding signal": "0.0194 KA relative to UGCAUGU"}
{"binder": "B21", "binding signal": "0.000553 KA relative to UGCAUGU"}
{"binder": "B22", "binding signal": "0.00964 KA relative to UGCAUGU"}
{"binder": "B23", "binding signal": "0.0186 KA relative to UGCAUGU"}
{"binder": "B24", "binding signal": "0.000159 KA relative to UGCAUGU"}
{"binder": "B25", "binding signal": "0.000155 KA relative to UGCAUGU"}
{"binder": "B26", "binding signal": "0.0123 KA relative to UGCAUGU"}
{"binder": "B27", "binding signal": "0.0115 KA relative to UGCAUGU"}
{"binder": "B28", "binding signal": "0.00773 KA relative to UGCAUGU"}
{"binder": "B29", "binding signal": "0.00517 KA relative to UGCAUGU"}
{"binder": "B30", "binding signal": "0.00926 KA relative to UGCAUGU"}
{"binder": "B31", "binding signal": "0.00141 KA relative to UGCAUGU"}
